# From the supplement of paper PMC7125110
# ± gives the standard error. Variants at the background level are over-represented here.
# B1: glmS ribozyme (parent)
# chain: AUAAAAGCGCCAGAACUACAGAAAUGUAGUUGACGAGGAGGAGGUUUAUCGAAUUUUCGGCGGAUGCCUCCAAA
# Legend:
# Settings in all cases: with glucosamine-6-phosphate
# glucosamine-6-phosphate [1] = variants of: B1; assay: self-cleavage kobs at 40 uM GlcN6P; higher = faster cleavage; RNA array
# Summary of the method: (§1)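 Ribozyme variants carrying barcodes were transcribed in situ on sequenced MiSeq chips by E. coli RNA polymerase and tracked at 37 °C with a hybridised Cy3 probe. They were exposed to 40 μM to 10 mM glucosamine-6-phosphate in HEPES/KCl/Mg(OAc)2 buffer. kobs came from exponential decay fits of normalised per-tile medians, and kcat and KM from weighted Michaelis–Menten fits.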
# glucosamine-6-phosphate [2] = variants of: B1; assay: self-cleavage kobs at 160 uM GlcN6P; higher = faster cleavage; RNA array
# Summary of the method: as §1
# glucosamine-6-phosphate [3] = variants of: B1; assay: self-cleavage kobs at 640 uM GlcN6P; higher = faster cleavage; RNA array
# Summary of the method: as §1
# glucosamine-6-phosphate [4] = variants of: B1; assay: self-cleavage kobs at 2500 uM GlcN6P; higher = faster cleavage; RNA array
# Summary of the method: as §1
# glucosamine-6-phosphate [5] = variants of: B1; assay: self-cleavage kobs at 10000 uM GlcN6P; higher = faster cleavage; RNA array
# Summary of the method: as §1
Variant,self-cleavage kobs at 40 uM GlcN6P (glucosamine-6-phosphate [1]),self-cleavage kobs at 160 uM GlcN6P (glucosamine-6-phosphate [2]),self-cleavage kobs at 640 uM GlcN6P (glucosamine-6-phosphate [3]),self-cleavage kobs at 2500 uM GlcN6P (glucosamine-6-phosphate [4]),self-cleavage kobs at 10000 uM GlcN6P (glucosamine-6-phosphate [5])
A33U G41C,< 1e-05 s⁻¹,< 1e-05 s⁻¹,,,
G32U U49C,< 1e-05 s⁻¹,< 1e-05 s⁻¹,< 1e-05 s⁻¹,,
G32A C61G,< 1e-05 s⁻¹,,,,
U31C G35A,< 1e-05 s⁻¹,< 1e-05 s⁻¹,< 1e-05 s⁻¹,< 1e-05 s⁻¹,< 1e-05 s⁻¹
U31C G35U,< 1e-05 s⁻¹,< 1e-05 s⁻¹,,< 1e-05 s⁻¹,
A33G G59U U69C,< 1e-05 s⁻¹,,,,< 1e-05 s⁻¹
G32C G43A,< 1e-05 s⁻¹,< 1e-05 s⁻¹,< 1e-05 s⁻¹,,< 1e-05 s⁻¹
C34A A36G,< 1e-05 s⁻¹,< 1e-05 s⁻¹,< 1e-05 s⁻¹,< 1e-05 s⁻¹,< 1e-05 s⁻¹
G32C A52C G63A,< 1e-05 s⁻¹,,,,
A33G G43C,< 1e-05 s⁻¹,,< 1e-05 s⁻¹,,< 1e-05 s⁻¹
G32C U45C,< 1e-05 s⁻¹,,< 1e-05 s⁻¹,,
U31C G51U,< 1e-05 s⁻¹,,,,
A33G A42G G63U A64U,< 1e-05 s⁻¹,< 1e-05 s⁻¹,,< 1e-05 s⁻¹,< 1e-05 s⁻¹
A33U A48G U55A C70U,< 1e-05 s⁻¹,,,,
G32C G63C,< 1e-05 s⁻¹,,,< 1e-05 s⁻¹,
G32A U49G,< 1e-05 s⁻¹,,2.83e-05 ± 1.2e-05 s⁻¹,4.58e-05 ± 1.1e-05 s⁻¹,5.56e-05 ± 8.3e-06 s⁻¹
G32A U49C,< 1e-05 s⁻¹,< 1e-05 s⁻¹,,,
A33G G40A,< 1e-05 s⁻¹,< 1e-05 s⁻¹,< 1e-05 s⁻¹,< 1e-05 s⁻¹,< 1e-05 s⁻¹
A33G G40U,< 1e-05 s⁻¹,,< 1e-05 s⁻¹,< 1e-05 s⁻¹,< 1e-05 s⁻¹
U31C U55G,0.000126 ± 1.5e-05 s⁻¹,,,,
U31C U55A,0.000152 ± 2.3e-05 s⁻¹,0.000289 ± 6.8e-05 s⁻¹,0.00126 ± 0.00017 s⁻¹,,
A33C G44A,< 1e-05 s⁻¹,< 1e-05 s⁻¹,< 1e-05 s⁻¹,< 1e-05 s⁻¹,< 1e-05 s⁻¹
A33U A52U,< 1e-05 s⁻¹,,< 1e-05 s⁻¹,,

Variant,self-cleavage kobs at 40 uM GlcN6P (glucosamine-6-phosphate [1]),self-cleavage kobs at 160 uM GlcN6P (glucosamine-6-phosphate [2]),self-cleavage kobs at 640 uM GlcN6P (glucosamine-6-phosphate [3]),self-cleavage kobs at 2500 uM GlcN6P (glucosamine-6-phosphate [4]),self-cleavage kobs at 10000 uM GlcN6P (glucosamine-6-phosphate [5])
A33C G41C U47C A53G U54C U65G C70U,< 1e-05 s⁻¹,,,,< 1e-05 s⁻¹
G32C A48C,< 1e-05 s⁻¹,< 1e-05 s⁻¹,< 1e-05 s⁻¹,< 1e-05 s⁻¹,
G32U A48U C71A,< 1e-05 s⁻¹,,,,< 1e-05 s⁻¹
G32A A48U,< 1e-05 s⁻¹,< 1e-05 s⁻¹,,,
G32A A33U C68G C71G,0.000162 ± 3.9e-05 s⁻¹,,0.000432 ± 0.0001 s⁻¹,9.26e-05 ± 3.4e-05 s⁻¹,0.000152 ± 3.2e-05 s⁻¹
A33G A39U U56G,< 1e-05 s⁻¹,,,< 1e-05 s⁻¹,
A33U U46A U47G,< 1e-05 s⁻¹,,,,
A33C C71A,< 1e-05 s⁻¹,< 1e-05 s⁻¹,< 1e-05 s⁻¹,< 1e-05 s⁻¹,
G32A U47G C61U,< 1e-05 s⁻¹,,,,
A33C G43A,< 1e-05 s⁻¹,< 1e-05 s⁻¹,< 1e-05 s⁻¹,,< 1e-05 s⁻¹
A33C G43C,< 1e-05 s⁻¹,,,,
A33C G43U,< 1e-05 s⁻¹,< 1e-05 s⁻¹,< 1e-05 s⁻¹,< 1e-05 s⁻¹,< 1e-05 s⁻¹
A33G U46C,< 1e-05 s⁻¹,< 1e-05 s⁻¹,< 1e-05 s⁻¹,< 1e-05 s⁻¹,< 1e-05 s⁻¹
U31C C34G,< 1e-05 s⁻¹,< 1e-05 s⁻¹,,,< 1e-05 s⁻¹
U31C C34A,< 1e-05 s⁻¹,< 1e-05 s⁻¹,,< 1e-05 s⁻¹,< 1e-05 s⁻¹
G32U C34G C68G,4.91e-05 ± 1.8e-05 s⁻¹,,,,
A33U A42G,< 1e-05 s⁻¹,,,6.02e-05 ± 1.3e-05 s⁻¹,8.89e-05 ± 3e-05 s⁻¹
A33U A42U,< 1e-05 s⁻¹,,< 1e-05 s⁻¹,,
U31A A36G G41A C67G,< 1e-05 s⁻¹,,,< 1e-05 s⁻¹,
U31G G43U,< 1e-05 s⁻¹,< 1e-05 s⁻¹,,,
G32A U45A,9.16e-05 ± 1.5e-05 s⁻¹,0.000267 ± 6.7e-05 s⁻¹,0.00117 ± 0.00024 s⁻¹,0.003 ± 0.001 s⁻¹,0.00438 ± 0.00057 s⁻¹
G32U A36G U45C C68G,< 1e-05 s⁻¹,,,,
